Reference: the supplement of paper PMC4723716
± gives the uncertainty stated by the source. Over roughly 9,900 compounds, “viability index relative to DMSO control” has its median near 1; the lowest 2% begin near 0.85. This is one part of the list.

Test system: Plasmodium falciparum NF54 stage V gametocytes
Test: viability index relative to DMSO control (fraction); higher = less gametocyte killing
Settings: 2.5 µM, incubation time: 72 h
How it was run: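 P. falciparum NF54 stage V gametocytes in serum-free screening medium (0.75% gametocytemia, 1.25% hematocrit, 10 µl) were incubated with compound at 2.5 µM in 1,536-well plates for 72 hr at 37°C under low oxygen. Then 3 µl of 2.5 µM MitoTracker Red CMXRos plus 0.13% saponin was added for one to two hours. One field per well was imaged, 20–70 µm2 red particles were counted, and the viability index was the count divided by the plate mean of DMSO wells.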

[1] = library set: Broad Institute DOS

| Compound | viability index [1] | viability index (library set: Broad Institute Blood Stage) |
| --- | --- | --- |
| CO[C@@H]1CN(C)C(=O)c2cc(NC(=O)C3CCCCC3)ccc2OC[C@H](C)N(C(=O)c2ccccc2)C[C@H]1C | 1.007 ± 0.0062 |  |
| O=C(C[C@H]1CC[C@H]2[C@@H](COC[C@@H](O)CN2Cc2nccs2)O1)NCc1ccccc1Cl | 1.1 ± 0.03 |  |
| COc1ccc2c3c([C@H](CO)N(C[C@]33CCN(CC3)C(=O)c3ccccn3)S(C)(=O)=O)n(C)c2c1 | 1.04 ± 0.0057 |  |
| C[C@@H]1C/C=C/C[C@@H](c2ccccc2)NC(=O)[C@@H](C)N(C)C(=O)c2ccccc2O1.C[C@@H]1C/C=C\C[C@@H](c2ccccc2)NC(=O)[C@@H](C)N(C)C(=O)c2ccccc2O1 | 1.04 ± 0.03 |  |
| C[C@H]1CN([C@@H](C)CO)C(=O)c2c(c3ccccc3n2C)-c2ccccc2CO[C@H]1CN(C)S(=O)(=O)c1ccc(C(F)(F)F)cc1 |  | 0.705 ± 0.04 |
| CO[C@@H]1CN(C)C(=O)c2cc(NC(=O)C3CCOCC3)ccc2OC[C@H](C)NC[C@@H]1C | 0.962 ± 0.028 |  |
| C[C@H]1CN([C@@H](C)CO)C(=O)CCCn2cc(nn2)CO[C@H]1CN(C)C(=O)Nc1ccc2c(c1)OCO2 | 1.06 ± 0.027 |  |
| CO[C@H]1CN(C)C(=O)c2ccc(NC(=O)C3CC3)cc2OC[C@@H](C)N(C(C)=O)C[C@H]1C | 1.1 ± 0.026 |  |
| O=C(c1cc2c(c(-c3cccc(Br)c3)n1)[C@@H](CCO)NC2)N1CCCCC1 | 0.988 ± 0.038 |  |
| COc1ccccc1-c1cn(CC[C@@H]2CC[C@@H](NC(=O)C3CCCCC3)[C@@H](CO)O2)nn1 | 1.04 ± 0.077 |  |
| C[C@H]1CCCCO[C@H](CN(C)C(=O)Cc2ccccc2)[C@@H](C)CN([C@@H](C)CO)C(=O)c2cc(NS(C)(=O)=O)ccc2O1 | 0.997 ± 0.015 |  |
| C[C@H](CO)N1C[C@H](C)[C@@H](CN(C)CC2CCCCC2)Oc2ccc(N(C)C)cc2C1=O | 0.995 ± 0.15 |  |
| CN(C)C(=O)c1cccc(-c2ccc([C@@H]3[C@H]4CNC[C@@H]3N4Cc3ccc4c(c3)OCO4)cc2)c1 | 1.023 ± 0.0077 |  |
| C[C@H]1CCCCO[C@@H](CN(C)C(=O)NC2CCCCC2)[C@@H](C)CN([C@@H](C)CO)C(=O)c2cc(N(C)C)ccc2O1 | 1.17 ± 0.036 |  |
| Cc1ccc(NC(=O)C[C@H]2CC[C@H]3[C@@H](COc4ccc(NC(=O)c5ccc(F)cc5)cc4C(=O)N3C)O2)cc1 | 1.17 ± 0.17 |  |
| COc1ccccc1CNC(=O)C[C@H]1C=C[C@H](NC(=O)CC2CC2)[C@@H](CO)O1 | 1.06 ± 0.12 |  |
| COc1ccc2c3c([C@@H](CO)N(C[C@]33CCN(CC3)C(=O)Nc3ccccc3F)C(C)=O)n(C)c2c1 | 1.03 ± 0.042 |  |
| COc1ccccc1CN1CC[C@@H]2[C@H]1c1cc(-c3cccc(C(=O)N(C)C)c3)ccc1N[C@@H]2CO | 1.09 ± 0.028 |  |
| CNC[C@H]1OCCCC[C@H](C)Oc2ccc(N)cc2C(=O)N([C@H](C)CO)C[C@@H]1C | 1.122 ± 0.0028 |  |
| COc1cccc(NC(=O)N[C@@H]2C=C[C@H](CC(=O)NCc3ccncn3)O[C@H]2CO)c1 | 1.1 ± 0.023 |  |
| COc1ccc(S(=O)(=O)N2C[C@@H](O)COC[C@H]3O[C@@H](CC(=O)N[C@@H]4CCN(Cc5ccccc5)C4)CC[C@@H]32)cc1 | 1.08 ± 0.028 |  |
| C[C@@H]1CN([C@H](C)CO)C(=O)c2cc(-c3cccc(C#N)c3)cnc2O[C@H]1CN(C)C(=O)C1CCOCC1 | 1.03 ± 0.011 |  |
| COc1ccccc1-c1cn(CC[C@H]2CC[C@@H](NC(=O)C3CCCCC3)[C@H](CO)O2)nn1 | 1.014 ± 0.0066 |  |

| Compound | viability index [1] | viability index (library set: Broad Institute Blood Stage) |
| --- | --- | --- |
| CC(=O)N1C[C@@H]2[C@H](c3ccccc31)[C@H](CO)N2Cc1ccc(Cl)cc1 | 1.1 ± 0.018 |  |
| C[C@H](CO)N1C[C@H](C)[C@@H](CN(C)C(=O)Nc2cccc(Cl)c2Cl)OCc2ccccc2-c2ccccc2C1=O | 0.845 ± 0.043 |  |
| C[C@@H]1CN([C@@H](C)CO)C(=O)c2ccccc2-c2ccccc2CO[C@@H]1CN(C)C(=O)[C@H](Cc1ccccc1)N(C)C | 0.985 ± 0.014 |  |
| O=C1CN(S(=O)(=O)c2cccc(F)c2)C[C@H]2[C@@H](c3ccc(C4=CCCC4)cc3)[C@@H](CO)N12 | 1.094 ± 0.0029 |  |
| N#C[C@@H]1[C@H](c2ccccc2)[C@@H](CO)N1C(=O)Nc1cccc(F)c1 | 0.997 ± 0.036 |  |
| COc1cccc(NC(=O)Nc2ccc3c(c2)C(=O)N(C)C[C@@H](OC)[C@@H](C)CN(CC2CC2)[C@H](C)CO3)c1 | 1.0478 ± 0.00077 |  |
| CCCC(=O)Nc1ccc2c(c1)OC[C@H](C)N(C(=O)c1cccnc1)C[C@@H](C)[C@@H](OC)CN(C)C2=O | 1.064 ± 0.005 |  |
| CCCNC(=O)Nc1ccc2c(c1)OC[C@@H](C)N(Cc1cncnc1)C[C@H](C)[C@H](OC)CN(C)C2=O | 1.06 ± 0.12 |  |
| C[C@H]1CN([C@@H](C)CO)C(=O)CCCn2cc(nn2)CO[C@@H]1CN(C)S(=O)(=O)c1cccc(C#N)c1 | 1.09 ± 0.041 |  |
| CCc1cnc(N2[C@@H](C#N)[C@@H](c3ccc(-c4cccc(F)c4)cc3)[C@@H]2CO)s1 | 1.058 ± 0.0019 |  |
| CO[C@@H](CN(C)S(=O)(=O)c1ccc(C)cc1)[C@H](C)CN([C@@H](C)CO)S(=O)(=O)c1cccc(Cl)c1 | 1.1 ± 0.016 |  |
| COCc1cn(CC[C@@H]2CC[C@@H](NC(=O)Nc3c(C)noc3C)[C@H](CO)O2)nn1 | 1.1 ± 0.11 |  |
| COc1ccc2c3c([C@@H](CO)N(C)C[C@]33CN(C3)S(=O)(=O)c3cccs3)n(C)c2c1 | 1.05 ± 0.18 |  |
| COc1ccccc1-c1ccc2c(c1)O[C@@H](CN(C)CC1CCOCC1)[C@H](C)CN([C@@H](C)CO)S2(=O)=O | 1.015 ± 0.009 |  |
| COc1ccc2c3c([C@H](CO)N(C[C@]33CN(Cc4ccc(Cl)cc4)C3)C(C)=O)n(C)c2c1 | 1.17 ± 0.1 |  |
| CN1CCCCN2[C@@H](CO)[C@@H](c3ccc(-c4ccc(F)cc4)cc3)[C@@H]2C1 | 1.07 ± 0.075 |  |
| C[C@@H]1CN([C@H](C)CO)C(=O)c2cc(-c3ccc(F)cc3)cnc2O[C@@H]1CN(C)S(C)(=O)=O | 1.04 ± 0.098 |  |
| COc1cccc(NC(=O)Nc2ccc3c(c2)C(=O)N(C)C[C@@H](OC)[C@H](C)CN[C@@H](C)CO3)c1 | 0.983 ± 0.059 |  |
| Cc1noc(C)c1NC(=O)N1C[C@@H](O)COC[C@H]2O[C@@H](CC(=O)NCC3CC3)CC[C@@H]21 | 1.04 ± 0.053 |  |
| N#Cc1cccc(-c2ccc3c(c2)[C@H]2[C@H](CCN2C(=O)c2ccccc2F)[C@H](CO)N3)c1 | 1.087 ± 0.0066 |  |
| CCC(=O)N1[C@@H](CO)[C@@H]2c3ccccc3N(C(=O)Nc3ccc(Cl)cc3)C[C@@H]21 | 1.1 ± 0.044 |  |
| COCCNC(=O)C[C@H]1C[C@H]2c3cc(NC(=O)CN(C)C)ccc3O[C@H]2[C@H](CO)O1 | 1.02 ± 0.018 |  |
| COc1ccccc1CNC(=O)C[C@@H]1C=C[C@H](NC(=O)CC2CC2)[C@@H](CO)O1 | 1.0392 ± 0.00021 |  |

| Compound | viability index [1] | viability index (library set: Broad Institute Blood Stage) |
| --- | --- | --- |
| CO[C@H]1CN(C)C(=O)c2cccc(C#N)c2OCC[C@@H]2CC[C@@H](OC)[C@H](CN(C)C(=O)[C@H]1C)O2 | 0.9918 ± 0.007 |  |
| O=C(C1CCOCC1)N1CC(=O)N2[C@H](C1)[C@@H](c1ccc(C#CC3CCCCC3)cc1)[C@@H]2CO | 1.05 ± 0.036 |  |
| C[C@@H]1CCCCO[C@@H](CN(C)S(=O)(=O)c2ccccc2)[C@@H](C)CN([C@H](C)CO)C(=O)c2cc(NC(=O)Nc3ccc4c(c3)OCO4)ccc2O1 | 1 ± 0.083 |  |
| C[C@@H]1CN([C@H](C)CO)C(=O)c2cc(NC(=O)Nc3ccc4c(c3)OCO4)ccc2O[C@@H](C)CCCCO[C@H]1CN(C)S(=O)(=O)c1ccccc1 | 0.923 ± 0.028 |  |
| COc1ccc([C@@H]2C/C=C/C[C@H](C)Oc3ccccc3C(=O)N(C)[C@@H](C(C)C)C(=O)N2)c(OC)c1.COc1ccc([C@@H]2C/C=C\C[C@H](C)Oc3ccccc3C(=O)N(C)[C@@H](C(C)C)C(=O)N2)c(OC)c1 | 0.9109 ± 0.0019 |  |
| O=C(O)C[C@H]1C[C@H]2c3cc(NC(=O)Nc4ccc(C(F)(F)F)cc4)ccc3O[C@H]2[C@H](CO)O1 | 1.13 ± 0.032 |  |
| C[C@@H]1CN([C@@H](C)CO)C(=O)c2ccccc2-c2ccccc2CO[C@@H]1CN(C)S(=O)(=O)Cc1ccccc1 | 0.949 ± 0.053 |  |
| N#C[C@H]1[C@@H](c2ccc(-c3cccc(F)c3)cc2)[C@H](CO)N1C(=O)NC1CCCC1 | 1.055 ± 0.0015 |  |
| COc1ccc2c3c([nH]c2c1)[C@@H](CO)N(C[C@]31CN(Cc2cccnc2)C1)C(=O)CC1CC1 | 0.992 ± 0.04 |  |
| O=C(C[C@@H]1CC[C@@H](NC(=O)c2ccc(F)cc2)[C@@H](CO)O1)NCCc1ccccc1 | 1.09 ± 0.055 |  |
| COc1ccccc1C#Cc1ccc2c(c1)[C@@H]1[C@@H](CCN1S(=O)(=O)c1cn(C)cn1)[C@@H](CO)N2 | 1.08 ± 0.031 |  |
| CCS(=O)(=O)N1[C@H](CO)[C@H](c2ccc(C#Cc3ccccc3F)cc2)[C@@H]1C#N | 1.03 ± 0.031 |  |
| COc1ccc(-c2ccccc2[C@@H]2[C@@H](C#N)N(C(=O)NC(C)C)[C@H]2CO)cc1 | 1.17 ± 0.056 |  |
| Cc1ccccc1-c1ccc([C@H]2[C@H](CO)N3C(=O)CN(S(C)(=O)=O)C[C@@H]23)cc1 | 1.04 ± 0.017 |  |
| C[C@@H]1CN([C@H](C)CO)C(=O)c2cccc(NS(C)(=O)=O)c2O[C@@H]1CN(C)Cc1ccc(-c2ccccc2)cc1 | 1.02 ± 0.028 |  |
| O=C(C[C@H]1CC[C@@H](NS(=O)(=O)c2ccc(F)cc2)[C@@H](CO)O1)N1CCN(c2ccccc2)CC1 | 1.17 ± 0.097 |  |
| C[C@@H]1CCCCO[C@@H](CN(C)C(=O)Cc2ccccc2)[C@@H](C)CN([C@@H](C)CO)C(=O)c2cc(NS(C)(=O)=O)ccc2O1 | 0.99 ± 0.038 |  |
| CO[C@@H]1CN(C)C(=O)c2cc(NC(=O)c3cccc(F)c3)ccc2OC[C@@H](C)N(C)C[C@@H]1C | 0.956 ± 0.018 |  |
| C[C@H](O)C#Cc1ccc([C@H]2[C@H]3CN(C(=O)c4ccc5c(c4)OCO5)CCCCN3[C@H]2CO)cc1 | 1.07 ± 0.065 |  |
| C[C@H](CO)N1C[C@H](C)[C@@H](CN(C)Cc2ccncc2)OCCCC[C@H](C)Oc2ccc(NC(=O)Cc3ccccc3)cc2C1=O | 1.04 ± 0.013 |  |
| N#C[C@@H]1[C@H](c2ccccc2-c2ccccc2F)[C@@H](CO)N1C(=O)c1cccc(F)c1 | 1.09 ± 0.13 |  |
| CCS(=O)(=O)N1Cc2cc(C(=O)NCCOC)nc(-c3cccc(-c4ccncc4)c3)c2[C@H]1CCO | 1.04 ± 0.026 |  |
| O=C(C[C@@H]1C=C[C@@H](NC(=O)Nc2ccc3c(c2)OCO3)[C@@H](CO)O1)NCCCN1CCOCC1 | 1.02 ± 0.075 |  |
